# Measurements reported in PubChem BioAssay AID686979 (National Center for Advancing Translational Sciences (NCATS), 2013).
# “And” between values parts separate entries of the source, which are not always exact repeats. Equal values may be shown once. Screen size: about 420,000 compounds; about 50,000 (12%) were called active. The shares of active, inactive and inconclusive entries below differ from those in the screen. The call rests on the fitted dose curve; in most records, active means well fitted inhibition curve with a large enough effect; inconclusive means small, poorly fitted or top-dose-only effect; inactive means flat fitted curve, though single readings scatter. Potencies beside an inconclusive call are fits to weak or partial responses and may not hold up.
# Test: qHTS for Inhibitors of human tyrosyl-DNA phosphodiesterase 1 (TDP1): qHTS in cells in presence of CPT; further: nearly all actives have a fitted effect of over 55% in size
# Settings: chicken DT40 Tdp1-/-;hTDP1 cells + 20 nM CPT, ATP luminescence, 48 h; activity change, negative = growth inhibition: at 46.2 µM (top of the series)
# In short: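 Cell growth measured by CellTiter-Glo luminescence after a minimum 48 h, 37 C compound exposure with 20 nM CPT in Tdp1-knockout DT40 cells stably expressing hTDP1, seeded 400/well; qHTS titration format.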
# On the % scale 0 is the no-effect control and ±100 the full control effect; potency means the concentration at half of the fitted maximal effect; tags describe the fitted curve by direction and shape.
SMILES,Potency,"activity change, negative = growth inhibition"
CCn1c(C(=O)NCCCc2ccccc2)cc2sccc21,"inconclusive: 18.4 µM [inhibitor, partial curve, poor fit]",–
Cc1ccccc1CNC(=O)C(=O)NCC(c1ccco1)S(=O)(=O)c1ccc(F)cc1 (stereo not drawn),"inconclusive: 29.1 µM [inhibitor, single point]",–
CC(=O)N[C@H]1[C@H](Oc2ccc3c(c2)CCC2C3CC[C@]3(C)C(=O)CCC23)O[C@H](CO)[C@@H](O)[C@@H]1O (stereo partly drawn),–,inactive: -0.821%
Cc1nc(-c2ccc(Cl)cc2)sc1C1(C)CC(c2ccc(Cl)cc2)=NO1 (stereo not drawn),"inconclusive: 32.6 µM [inhibitor, single point]",–
Cc1nnc(SCC(=O)Nc2ccc3c(c2)OCO3)n(N)c1=O,–,inactive: 1.63%
CC1CCCCN1C(=O)Nc1ccccc1Cl (stereo not drawn),–,inactive: -8.97%
CSc1cccc(CNC(=O)C2CCC(=O)N(CCCN3CCCC3=O)C2)c1 (stereo not drawn),–,inactive: -5.73%
CC1=NN(c2ccc([N+](=O)[O-])cc2)C(c2ccccc2)C1 (stereo not drawn),"inconclusive: 29.1 µM [inhibitor, single point]",–
CN(C)c1ccc(-c2ccnc3c2CC(C)(C(=O)NCc2ccccc2)O3)cc1 (stereo not drawn),active: 2.91 µM,–
CC(C)(C)SCCNC(=O)c1ccc(CN2CCc3ccccc3C2)cc1,"inconclusive: 29.1 µM [inhibitor, single point]",–
COc1cccc(CNC(=O)Cn2c(=O)c3cccn3c3ccc(F)cc32)c1OC,–,inactive: -10.8%
CC1CN(c2oc(COc3ccc(Cl)cc3Cl)nc2C#N)CC(C)O1 (stereo not drawn),"inconclusive: 18.4 µM [inhibitor, single point]",–
COc1ccccc1C(=O)NCCC(=O)NCc1ccccn1,–,inactive: -6.37%
COc1ccc(CCNC(=O)c2cc(C3CC3)on2)cc1OC,–,inactive: -19.9%
Cc1[nH]nc2ncc(C(=O)c3cc(F)ccc3O)cc12,"inconclusive: 20.6 µM [inhibitor, partial curve]",–
Cc1c(C)c2ccc(OCC(=O)NCCc3c[nH]c4ccccc34)c(C)c2oc1=O,"inconclusive: 7.31 µM [inhibitor, partial curve, poor fit]",–
CN(C)S(=O)(=O)c1ccc(N2CCCC2)c(C(=O)Nc2nc3ccccc3s2)c1,–,inconclusive: -32.4% [inhibitor]
S=C(NCc1ccccc1)NNc1ccccc1,active: 4.61 µM,–
COC(=O)c1ccc(COC(=O)c2ccccn2)cc1,–,inactive: -10.6%
Cn1nc(-c2ccccc2)c(CSc2cccc(Cl)c2)c1Cl,active: 16.4 µM,–
COC(=O)c1c(NC(=O)c2ccc(Br)o2)sc(C)c1C,"inconclusive: 18.4 µM [inhibitor, single point]",–
Cc1ccc2nc(/C(C#N)=C/c3ccc(-c4ccccc4C(=O)O)o3)[nH]c2c1,–,inactive: -2.16%
O=C(C(Sc1ccccc1)c1ccccc1)N1CCN(c2ccccc2)CC1 (stereo not drawn),"inconclusive: 18.4 µM [inhibitor, single point]",–
COc1ccc(NC(=O)C2CCN(S(=O)(=O)c3ccc(N4CCCC4=O)cc3)CC2)c(OC)c1,"inconclusive: 0.0046 µM [inhibitor, full curve, poor fit]",–
OCCOCCn1c(-c2ccccc2)nc(=S)c2c1CCCC2,–,inactive: -0.648%

SMILES,Potency,"activity change, negative = growth inhibition"
O=C(O)CCCN1C(=O)/C(=C/c2ccncc2)SC1=S,"inconclusive: 18.4 µM [inhibitor, single point]",–
Cc1cccc(NC(=O)CSc2nnc(-c3cccs3)o2)c1,"inconclusive: 14.6 µM [inhibitor, partial curve]",–
Cc1ccc(CCNC(=O)c2cc(-c3ccncc3)nc3ccc(S(=O)(=O)N4CCOCC4)cc23)cc1,"inconclusive: 16.4 µM [inhibitor, single point]",–
O=C(COC(=O)c1ccc(Cl)s1)c1cc2ccccc2o1,–,inactive: -18.4%
COc1cccc2cc(-c3nnc(Nc4ccccc4C)s3)c(=O)oc12,"inconclusive: 4.61 µM [inhibitor, full curve]",–
COc1ccccc1N1CCN(C(=O)CCn2cnc3onc(-c4ccc(F)cc4)c3c2=O)CC1,"inconclusive: 29.1 µM [inhibitor, single point]",–
O=C(c1ccoc1)N1CCC2(CC1)Oc1ccc(Cl)cc1C(=O)C21CC(c2ccccc2)=NO1 (stereo not drawn),"inconclusive: 29.1 µM [inhibitor, single point]",–
O=C(Cc1cccs1)N1CCN(S(=O)(=O)c2ccc(F)c(F)c2)CC1,–,inactive: 7.77%
COCCCNC(=O)c1ccc2c(=O)n(C3CCCC3)c(=S)[nH]c2c1,–,inactive: -20.8%
COc1ccc(CN(C)C(=O)/C=C/c2ccc(S(=O)(=O)N3CCOCC3)cc2)cc1F,active: 16.4 µM,–
O=[N+]([O-])c1ccc(O)c2cccnc12,–,inactive: -4.11%
COc1ccc(Nc2nc(-c3cc4cccc(OC)c4oc3=O)cs2)cc1,"inconclusive: 29.1 µM [inhibitor, single point]",–
CCOc1ccc(NC(=O)Nc2cc(C(=O)O)ccc2N2CC3CC(C2)c2cccc(=O)n2C3)cc1 (stereo not drawn),–,inactive: -17.1%
COC(=O)[C@]12CCCCC=C1N(CCC1=CCCCC1)C(=O)[C@H](CC(=O)NCc1cccs1)C2,"inconclusive: 20.6 µM [inhibitor, single point]",–
COC(=O)c1sccc1S(=O)(=O)N(CC(=O)Nc1ccc(C)cc1)c1ccccc1,"inconclusive: 29.1 µM [inhibitor, single point]",–
CCOC(=O)c1nc(-c2ccccc2)sc1C(C)=O,–,inactive: 13.5%
COc1ccc(CN(C)Cc2cc(=O)oc3cc(C)c(C(C)C)cc23)cc1OC,"inconclusive: 29.1 µM [inhibitor, single point]",–
CC1CCc2sc(C(=O)N/N=C/c3ccc(O)cc3)cc2C1 (stereo not drawn),"inconclusive: 20.6 µM [inhibitor, partial curve, poor fit]",–
CCc1ccc(OCC(=O)NNC(=S)NC(=O)C2CC2)c(Br)c1,active: 16.4 µM,–
Cc1ccc(C)n1C(CC(=O)O)c1ccc(C#N)cc1 (stereo not drawn),–,inactive: -23.9%
CCOc1ccc(NC(=O)CN(C)C(=O)c2ccc(OCC3CCCO3)cc2)cc1OCC (stereo not drawn),–,inactive: -1.45%
Cc1ccc(-c2c(C(=O)N/N=C/c3sccc3C)nnn2-c2nonc2N)cc1,–,inactive: -28.3%
COc1ccc(NC(=O)Cn2c(=O)nc(-c3ccccc3)c3ccccc32)cc1OC,"inconclusive: 5.8 µM [inhibitor, full curve]",–
CCOc1cc(C)c(S(=O)(=O)NCCCn2ccnc2)cc1C,"inconclusive: 29.1 µM [inhibitor, single point]",–
Cc1cc(C)cc(N2C(=O)CS(=O)(=O)C23C(=O)N(Cc2ccc(F)cc2)c2ccc(C)cc23)c1 (stereo not drawn),active: 18.4 µM,–

SMILES,Potency,"activity change, negative = growth inhibition"
CCOC(=O)c1[nH]c2ccc(OCC)cc2c1NC(=O)CN1CCCC(C)C1 (stereo not drawn),"inconclusive: 29.1 µM [inhibitor, single point]",–
Cc1ncc([N+](=O)[O-])n1S(=O)(=O)c1cc(Cl)ccc1Cl,–,inactive: 13.2%
Clc1ccccc1-c1nn2c(-c3cc(-c4ccccc4)n[nH]3)nnc2s1,active: 12.6 µM,–
Cc1cc(F)ccc1NC(=O)C1CCCN(c2nnc(-n3c(C)ccc3C)s2)C1 (stereo not drawn),active: 20.6 µM,–
COc1cc(OC)c(OC)cc1CN1CCN(Cc2ccc(SC)cc2)CC1,"inconclusive: 29.1 µM [inhibitor, single point]",–
O=C(O)c1cccc2cccnc12,–,inactive: 2.07%
Cc1nn(-c2ccccc2)c(C)c1NC(=O)COC(=O)c1cc(Br)ccc1O,–,inactive: -3.96%
CC(c1ccon1)N(C)C(=O)c1ccc2nc(Cc3cccc(Cl)c3)oc2c1 (stereo not drawn),"inconclusive: 25.9 µM [inhibitor, single point]",–
CN(CC(=O)Nc1ccccc1C(F)(F)F)C(=O)COc1ccccc1Cc1ccccc1,"inconclusive: 29.1 µM [inhibitor, single point]",–
C=CCn1c(COc2ccccc2OC)nc2ccccc21,"inconclusive: 23.1 µM [inhibitor, single point]",–
Clc1cccc(-c2cc3nc4c(c(NCc5ccco5)n3n2)CCCC4)c1,active: 20.6 µM,–
CC(=O)c1cc(C#N)c(SCC(=O)Nc2nccs2)nc1C,"inconclusive: 20.6 µM [inhibitor, partial curve]",–
CCOc1ccc(-c2cc3nc(C4CCN(C(=O)OC(C)(C)C)CC4)c(C(=O)Nc4ccc(C(=O)OC)cc4)cn3n2)cc1,–,inactive: -25.1%
O=C1C2C3C=CC(C4CC34)C2C(=O)N1CCc1ccccc1 (stereo not drawn),–,inactive: -0.924%
Cc1ccc(S(=O)(=O)N2CCC(C(=O)NCC3CCCCC3)CC2)cc1,–,inactive: -2.3%
O=C(NC1=NCCS1)c1cc(-c2ccc(-c3ccccc3)cc2)nc2ccccc12,"inconclusive: 29.1 µM [inhibitor, single point]",–
Cc1cccc(C(=O)NC(=S)NNC(=O)c2ccc(Cl)cc2)c1,"inconclusive: 16.4 µM [inhibitor, single point]",–
O=C(Nc1ccccc1Cl)c1cc(C2CCCCN2C(=O)OCCF)on1 (stereo not drawn),"inconclusive: 20.6 µM [inhibitor, partial curve, poor fit]",–
C=CCN(c1ccccc1OC)S(=O)(=O)c1cccc(C(=O)OCC(=O)N2CC(C)OC(C)C2)c1 (stereo not drawn),"inconclusive: 29.1 µM [inhibitor, single point]",–
O=C1NC(=O)C(c2cn(-c3ccccc3)nc2-c2ccc(F)cc2)N1 (stereo not drawn),"inconclusive: 29.1 µM [inhibitor, single point]",–
O=C(Nc1ccc2c(c1)OCO2)c1cccc(S(=O)(=O)N2CCCC2)c1,"inconclusive: 20.6 µM [inhibitor, single point]",–
COc1ccccc1N1CCN(Cc2ccc(-c3ccccc3[N+](=O)[O-])o2)CC1,"inconclusive: 25.9 µM [inhibitor, single point]",–
Cn1c(=NC(=O)CN2C(=O)C3CC=CCC3C2=O)sc2ccccc21 (stereo not drawn),"inconclusive: 35.5 µM [inhibitor, single point] and inconclusive: 29.1 µM [inhibitor, partial curve, poor fit]",–
